Assay results published in the supplement of paper PMC6206098.
± gives the uncertainty stated by the source. The sequences are guide strands of siRNAs; only the seed at positions 2 to 7 varies.

What was measured:
3LL = experiment: cell viability relative to siNT1 control; higher = less toxic; conditions: concentration: 10 nM; 96 h; Mus musculus;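 note: Luminescence-based viability of cells reverse transfected in 384-well plates with lipid-complexed siRNAs built on a non-toxic 19mer backbone whose passenger strand carries 2′-O-methyl groups at positions 1 and 2, triplicates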
M565 = experiment: cell viability relative to lipid-only control; HeyA8 human ovarian and H460 human lung cancer; M565 mouse liver and 3LL mouse lung cancer; siNT1 is a non-toxic control siRNA; higher = less toxic; conditions: concentration: 10 nM; 96 h; Mus musculus
Protocol: (§1)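 Arrayed screen of 4096 siRNA duplexes, each carrying one of all possible 6mer seeds at guide-strand positions 2-7 in a fixed neutral 19mer scaffold (constant flanks: U at position 1, then ACAUGUAAACCA, plus a 3' AA overhang). The passenger strand is 2'-O-methylated at positions 1-2 so only the guide strand loads into RISC. Duplexes were reverse-transfected at 10 nM with RNAiMAX in triplicate in 384-well plates; viability was read by CellTiter-Glo ATP content 96 h after transfection. Values are % viability normalised to lipid-only wells (HeyA8, H460, M565) or to siNT1 (3LL).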

HeyA8 = experiment: as above; conditions: concentration: 10 nM; 96 h; Homo sapiens
Protocol: as §1

H460 = experiment: as above; conditions: concentration: 10 nM; 96 h; Homo sapiens
Protocol: as §1
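Throughout, for cell viability relative to lipid-only control: reverse lipid transfection in 384-well plates, in triplicate, of duplexes on a non-toxic 19mer backbone with passenger strand 2′-O-methylated at positions 1 and 2, luminescence viability read-out.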

Row | Sequence | cell viability (3LL) [%] | cell viability (M565) [%] | cell viability (HeyA8) [%] | cell viability (H460) [%]
1 | UGACGAUACAUGUAAACCAAA | 95.1 ± 17 | 30 ± 3.9 | 36.6 ± 3.9 | 45.8 ± 4.3
2 | UAAGGACACAUGUAAACCAAA | 32.5 ± 2.6 | 48.1 ± 2.9 | 35.8 ± 0.58 | 46.6 ± 11
3 | UGCUAAAACAUGUAAACCAAA | 88.3 ± 12 | 80 ± 1.6 | 70.9 ± 8.6 | 70 ± 7.7
4 | UGUAAAAACAUGUAAACCAAA | 92.5 ± 8.2 | 68.9 ± 2.6 | 88.2 ± 4.2 | 76.2 ± 14
5 | UGAGCCGACAUGUAAACCAAA | 63.5 ± 13 | 16.8 ± 5.2 | 81.2 ± 4.6 | 77.2 ± 10
6 | UAGGAGAACAUGUAAACCAAA | 82.2 ± 2.9 | 30.6 ± 10 | 60.5 ± 12 | 59.2 ± 5.4
7 | UUUGGCCACAUGUAAACCAAA | 56.4 ± 6.5 | 43.2 ± 8 | 84.6 ± 7.8 | 55.7 ± 4.2
8 | UCAGAUUACAUGUAAACCAAA | 90.6 ± 23 | 49.5 ± 8.5 | 87.8 ± 6.9 | 59.1 ± 7.8
9 | UCCGAACACAUGUAAACCAAA | 97.9 ± 15 | 75 ± 11 | 70 ± 2.4 | 70.5 ± 4.4
10 | UGCGGCAACAUGUAAACCAAA | 34.7 ± 5.2 | 16.9 ± 5.3 | 10.9 ± 2.3 | 24.2 ± 1.6
11 | UCUUAGCACAUGUAAACCAAA | 79.9 ± 17 | 47 ± 10 | 50.3 ± 9.6 | 59.5 ± 1.7
12 | UUGAGCUACAUGUAAACCAAA | 5.56 ± 2.1 | 11.9 ± 4.3 | 69.5 ± 6.9 | 34.6 ± 2.1
13 | UAUGCAUACAUGUAAACCAAA | 92.9 ± 16 | 105 ± 11 | 82.3 ± 3.9 | 79.7 ± 17
14 | UGUUUUUACAUGUAAACCAAA | 85.1 ± 3 | 94.8 ± 9.9 | 64.2 ± 1.1 | 62.1 ± 5.3
15 | UUACAAAACAUGUAAACCAAA | 106 ± 8.4 | 102 ± 22 | 98.5 ± 4.3 | 99.1 ± 6.6
16 | UUGGAUUACAUGUAAACCAAA | 87 ± 5.7 | 88.2 ± 2.3 | 88.9 ± 6.1 | 75.1 ± 7.7
17 | UCCAUGUACAUGUAAACCAAA | 42.6 ± 7.5 | 19 ± 2.7 | 35.3 ± 5.7 | 58.4 ± 1.2
18 | UAUAAUUACAUGUAAACCAAA | 98.5 ± 22 | 95.2 ± 14 | 99.2 ± 6.7 | 71 ± 5.9
19 | UGUAAACACAUGUAAACCAAA | 90.2 ± 10 | 61.2 ± 9.6 | 90 ± 12 | 71.6 ± 22
20 | UCUCUAUACAUGUAAACCAAA | 107 ± 16 | 61 ± 14 | 87 ± 6.6 | 41.7 ± 6.7
21 | UACGAAAACAUGUAAACCAAA | 85.2 ± 8.8 | 84.5 ± 7.6 | 94.6 ± 10 | 101 ± 6.3
22 | UUCUUAAACAUGUAAACCAAA | 97.6 ± 7.9 | 102 ± 19 | 96.3 ± 7.6 | 61.8 ± 11

Row | Sequence | cell viability (3LL) [%] | cell viability (M565) [%] | cell viability (HeyA8) [%] | cell viability (H460) [%]
23 | UCAGCGCACAUGUAAACCAAA | 70.1 ± 12 | 46.8 ± 4.2 | 68.1 ± 3.6 | 56.3 ± 8.5
24 | UUGCGUAACAUGUAAACCAAA | 84.7 ± 6.5 | 98 ± 18 | 97.8 ± 5.2 | 87 ± 7.5
25 | UUUCGUCACAUGUAAACCAAA | 83 ± 8.2 | 54.6 ± 7.9 | 74.8 ± 2.8 | 55.4 ± 3.7
26 | UAAAAUAACAUGUAAACCAAA | 121 ± 18 | 75.7 ± 6.5 | 102 ± 6.8 | 70.5 ± 5.2
27 | UAAGAUAACAUGUAAACCAAA | 88.5 ± 5.3 | 79.1 ± 8.1 | 84.2 ± 14 | 64.9 ± 5.8
28 | UAGCAUCACAUGUAAACCAAA | 72.8 ± 7.7 | 6.91 ± 2.9 | 70.7 ± 9.1 | 66.5 ± 7.3
29 | UAUCCCAACAUGUAAACCAAA | 71.5 ± 6.1 | 73.3 ± 8.9 | 23.9 ± 3.6 | 38.8 ± 3.7
30 | UGACUGUACAUGUAAACCAAA | 39 ± 10 | 44.3 ± 6.4 | 30.9 ± 0.41 | 21.2 ± 2.9
31 | UAAACAGACAUGUAAACCAAA | 116 ± 8.4 | 95.9 ± 38 | 96.7 ± 9.2 | 71.9 ± 8.3
32 | UGUUGGGACAUGUAAACCAAA | 36.3 ± 11 | 24.2 ± 5.1 | 7.79 ± 0.91 | 22.8 ± 2.7
33 | UCAAUCUACAUGUAAACCAAA | 94.5 ± 14 | 83.2 ± 8.2 | 69.5 ± 7.9 | 55.3 ± 7.3
34 | UUAACAUACAUGUAAACCAAA | 100 ± 15 | 111 ± 10 | 97.8 ± 1.8 | 77.8 ± 7.9
35 | UGUCUUUACAUGUAAACCAAA | 45.8 ± 7.3 | 27.5 ± 4.3 | 43.2 ± 6.2 | 53.7 ± 3.9
36 | UGACAUAACAUGUAAACCAAA | 94.3 ± 21 | 72.9 ± 7 | 102 ± 11 | 75.6 ± 12
37 | UGGUCUCACAUGUAAACCAAA | 89.8 ± 13 | 62.3 ± 22 | 44.1 ± 4.4 | 47.4 ± 9
38 | UCUCCAUACAUGUAAACCAAA | 92.9 ± 16 | 71.8 ± 12 | 82.4 ± 12 | 53.5 ± 7.3
39 | UCUAUGUACAUGUAAACCAAA | 80.7 ± 16 | 73.3 ± 15 | 56.6 ± 1.1 | 66.8 ± 1.9
40 | UGUGUGUACAUGUAAACCAAA | 16.3 ± 7.1 | 17.2 ± 3.9 | 30.3 ± 2 | 41.6 ± 5.5
41 | UAAAGUUACAUGUAAACCAAA | 79.7 ± 5.3 | 67.7 ± 6.4 | 76.9 ± 3.9 | 63.5 ± 5.5
42 | UCGGUCCACAUGUAAACCAAA | 15.9 ± 4.4 | 8.37 ± 1.2 | 11.8 ± 0.23 | 14 ± 4.6
43 | UGCCGGAACAUGUAAACCAAA | 52.4 ± 6.2 | 19 ± 1.2 | 75.3 ± 6.8 | 45.1 ± 1.6
44 | UCGCUCGACAUGUAAACCAAA | 93.2 ± 10 | 71.6 ± 7.9 | 74.6 ± 2.4 | 62.8 ± 5.2
